Test results taken from PubChem BioAssay AID1347120 (National Center for Advancing Translational Sciences (NCATS), 2019).
Among all 390,000 compounds or so, about 930 (0.24%) were called active. This list was built around the results that the source calls inconclusive (neither active nor inactive); the mix of calls is not that of the screen. The call rests on the fitted dose curve; in most records, active means well fitted activation curve with a large enough effect; inconclusive means small, poorly fitted or top-dose-only effect; inactive means no such curve, though single readings can be large or run the other way. Potencies beside an inconclusive call are fits to weak or partial responses and may not hold up.

assay: qHTS for Suppressors of FUS Proteinopathy: Primary screen using FUS-linked yeast assay; further: nearly all actives have a fitted effect of over 55% in size;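 on growth rescue (activation): plate controls were DMSO vehicle for no effect and reference control for full effect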; conditions: S. cerevisiae FUS-expressing, OD600, 24 h; Potency: growth rescue; growth rescue (activation): at 76.6 µM (top of the series)
Summary of the method: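 Galactose (2%) drives FUS expression in yeast precultured in raffinose; seeding density OD 0.005. Test compounds incubated 24hr at 30C and 99% humidity before absorbance at 600 nm was measured.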
Potency means the concentration at half of the fitted maximal effect; tags describe the fitted curve by direction and shape.

| SMILES | Potency | growth rescue (activation) |
| --- | --- | --- |
| O=C(NC1CCCN(Cc2ccc(Cl)cc2)C1)c1c(F)ccc(F)c1F (stereo not drawn) | inconclusive: 11.2 µM [activator, single point] |  |
| COc1cc(OC)cc(-c2sc3ccc(OC)cc3c2-c2ccc(OCCN3CCCCC3)cc2)c1 | inconclusive: 25.1 µM [activator, single point] |  |
| CCCCCn1c(SCc2ccncc2)nc2cc(C(=O)NCc3ccco3)ccc2c1=O | inconclusive: 25.1 µM [activator, partial curve, poor fit] |  |
| CCc1[nH]nc(C(=O)N2CCCC(C(=O)c3cccc(OC(C)C)c3)C2)c1C (stereo not drawn) | inconclusive: 7.08 µM [activator, partial curve, poor fit] |  |
| Cc1ccc(C)c(NC(=O)CN2C(=O)CSc3nc(C)cc(C)c32)c1 | inconclusive: 20 µM [activator, partial curve, poor fit] |  |
| CNC(=O)c1cc2cc(OC)ccc2oc1=N | inconclusive: 50.1 µM [activator, partial curve, poor fit] |  |
| COc1ccc(NC(=O)[C@@H]2CC=C[C@@H]3CCN(Cc4ccc(Cl)c(Cl)c4)C(=O)[C@@H]32)cc1 | inconclusive: 50.1 µM [activator, single point] |  |
| CCCCC[C@H](C)N1C[C@H](COCc2ccccc2)Oc2cc(N3CCC[C@@H]3CO)ccc2S1(=O)=O | inconclusive: 44.7 µM [activator, single point] |  |
| O=C(OCc1nnc(-c2ccccc2)o1)c1cc(=O)c2ccccc2o1 | inconclusive: 39.8 µM [activator, partial curve, poor fit] |  |
| COC(=O)[C@@H]1C[C@@]2(c3ccccc3)c3ccccc3N(S(=O)(=O)c3ccccc3)[C@H]2N1C(=O)CNC/C=C(\C)CCC=C(C)C | inconclusive: 35.5 µM [activator, single point] |  |
| COC(=O)c1sc2cccc(F)c2c1S(=O)(=O)N1CCN(c2ccccc2OC)CC1 | inconclusive: 35.5 µM [activator, partial curve, poor fit] |  |
| COc1ccc(-c2cc3nc(-c4ccccc4)cc(N4CCC5(CC4)OCCO5)n3n2)cc1 | inconclusive: 12.6 µM [activator, partial curve, poor fit] |  |
| CC(NC(=O)c1nn(C)c2c1CSc1ccccc1-2)c1ccccc1 (stereo not drawn) | inconclusive: 39.8 µM [activator, single point] |  |
| c1ccc(COc2ncnc3c2ncn3CCCN2CCN(Cc3cccc4ccccc34)CC2)cc1 | inconclusive: 17.8 µM [activator, single point] |  |
| COc1ccc(C2CC(c3cccs3)=NN2C(=O)CSC2=NN3CCCC(=O)N=C3S2)cc1 (stereo not drawn) | inconclusive: 35.5 µM [activator, single point] |  |
| CCOc1ccc(CC(=O)NCCc2csc(-c3ccc(C(F)(F)F)cc3)n2)cc1 |  | inactive: -0.449% |
| Cc1sc2ncnc(Sc3ccccc3C(=O)Nc3ccc(C#N)cc3)c2c1C | inconclusive: 50.1 µM [activator, single point] |  |
| COc1cnn(-c2ccc(C)cc2)c(=O)c1Br |  | inactive: 34.9% |
| CCOc1ccc(-n2c(SCC(=O)Nc3ccccc3-c3ccccc3)nnc2-c2ccncc2)cc1 | inconclusive: 20 µM [activator, single point] |  |

| SMILES | Potency | growth rescue (activation) |
| --- | --- | --- |
| O=C(NCCCc1ccccc1)[C@H](Cc1ccccc1)NC1(C(=O)NCCc2c[nH]c3ccccc23)CCOCC1 | inconclusive: 20 µM [activator, single point] |  |
| O=C(c1ccc2c(c1)N(Cc1ccc(Cl)cc1)C(=O)c1ccccc1S2=O)N1CCN(c2ccccc2F)CC1 (stereo not drawn) | inconclusive: 35.5 µM [activator, single point] |  |
| COc1ccc(/C=N/NC(=O)COc2ccc3ccccc3c2)c(C(=O)O)c1OC |  | inactive: 15.8% |
| CN(C)c1ccc(-c2cc([C@H]3[C@@H]4C=CCC[C@@]4(C)C(=O)N3Cc3ccccc3)ccc2F)cc1 | inconclusive: 28.2 µM [activator, partial curve, poor fit] |  |
| COc1ccc(NC(=O)c2cc(-c3cc(F)ccc3OCC3CCCO3)n[nH]2)cc1OC (stereo not drawn) | inconclusive: 39.8 µM [activator, single point] |  |
| CC1=C(C(=O)N(C)C)CC(CC(=O)NCc2cccc3ccccc23)C(=O)N1Cc1ccc(C(C)(C)C)cc1 (stereo not drawn) | inconclusive: 35.5 µM [activator, single point] |  |
| O=C(Nc1ccc(NC(=O)c2ccccc2Cl)c(Cl)c1)c1ccccn1 |  | inactive: 6.17% |
| CC1CC(C)CN(c2nc(N(C)c3ccccc3)nc(N)c2[N+](=O)[O-])C1 (stereo not drawn) |  | inactive: 38.7% |
| COc1ccc(-n2nc(C(=O)NCC(=O)N3CCN(c4ccc(F)cc4)CC3)c3ccccc3c2=O)c(OC)c1 | inconclusive: 31.6 µM [activator, single point] |  |
| COC(=O)c1cc(-c2cc(Cl)ccc2OC)c(=O)n2c1CCC2 |  | inactive: -7.21% |
| COc1ccc(S(=O)(=O)N(C)C[C@@H]2Oc3ccc(NC(=O)Nc4c(C)noc4C)cc3C(=O)N([C@H](C)CO)C[C@@H]2C)cc1 | inconclusive: 7.94 µM [activator, partial curve] |  |
| Cc1nn(Cc2ccc(C(=O)N3c4ccc(F)cc4CCC3C)o2)c(C)c1Br (stereo not drawn) | inconclusive: 25.1 µM [activator, single point] |  |
| Cc1sc2nc(CSC(C)C(=O)Nc3ccccn3)[nH]c(=O)c2c1C (stereo not drawn) | inconclusive: 25.1 µM [activator, partial curve, poor fit] |  |
| COc1ccc(CCNC(=O)c2cc(Nc3cc(C)cc(C)c3)nc3ccccc23)cc1OC | inconclusive: 44.7 µM [activator, single point] |  |
| CCc1ccccc1NC(=O)CSc1ncc(S(=O)(=O)c2ccccc2)c(N)n1 |  | inactive: 16.8% |
| O=C(NCc1ccccn1)c1cc(S(=O)(=O)N2CCN(c3ccccc3)CC2)ccc1Cl | inconclusive: 4.47 µM [activator, full curve] |  |
| CCCCCCC(=O)N(O)C1CC(=O)N(c2ccc(Br)cc2)C1=O (stereo not drawn) |  | inactive: 28% |
| O=C(O)/C=C/C(=O)Nc1ccc2c(c1)C(=O)c1ccccc1C2=O |  | inactive: -2.98% |
| Cc1oc2c(C)c3oc(=O)c(CCC(=O)N4CCC(C(=O)NCCC(=O)O)(c5ccccc5)CC4)c(C)c3cc2c1C | inconclusive: 39.8 µM [activator, single point] |  |
